What was measured:
[1] = target: MERS-CoV RdRp (Middle East respiratory syndrome-related coronavirus, UniProt K9N7C7)
[2] = target: PIV-5 RdRp (Parainfluenza virus 5, UniProt Q88434)
[3] = target: HPIV-3 RdRp (Human parainfluenza 3 virus, UniProt P12577)
[4] = target: HMPV RdRp (Human metapneumovirus, UniProt Q6WB93)
[5] = target: RSV RdRp (Human respiratory syncytial virus A, UniProt P28887)

Sequence of UniProt Q88434 (Q88434 whole entry): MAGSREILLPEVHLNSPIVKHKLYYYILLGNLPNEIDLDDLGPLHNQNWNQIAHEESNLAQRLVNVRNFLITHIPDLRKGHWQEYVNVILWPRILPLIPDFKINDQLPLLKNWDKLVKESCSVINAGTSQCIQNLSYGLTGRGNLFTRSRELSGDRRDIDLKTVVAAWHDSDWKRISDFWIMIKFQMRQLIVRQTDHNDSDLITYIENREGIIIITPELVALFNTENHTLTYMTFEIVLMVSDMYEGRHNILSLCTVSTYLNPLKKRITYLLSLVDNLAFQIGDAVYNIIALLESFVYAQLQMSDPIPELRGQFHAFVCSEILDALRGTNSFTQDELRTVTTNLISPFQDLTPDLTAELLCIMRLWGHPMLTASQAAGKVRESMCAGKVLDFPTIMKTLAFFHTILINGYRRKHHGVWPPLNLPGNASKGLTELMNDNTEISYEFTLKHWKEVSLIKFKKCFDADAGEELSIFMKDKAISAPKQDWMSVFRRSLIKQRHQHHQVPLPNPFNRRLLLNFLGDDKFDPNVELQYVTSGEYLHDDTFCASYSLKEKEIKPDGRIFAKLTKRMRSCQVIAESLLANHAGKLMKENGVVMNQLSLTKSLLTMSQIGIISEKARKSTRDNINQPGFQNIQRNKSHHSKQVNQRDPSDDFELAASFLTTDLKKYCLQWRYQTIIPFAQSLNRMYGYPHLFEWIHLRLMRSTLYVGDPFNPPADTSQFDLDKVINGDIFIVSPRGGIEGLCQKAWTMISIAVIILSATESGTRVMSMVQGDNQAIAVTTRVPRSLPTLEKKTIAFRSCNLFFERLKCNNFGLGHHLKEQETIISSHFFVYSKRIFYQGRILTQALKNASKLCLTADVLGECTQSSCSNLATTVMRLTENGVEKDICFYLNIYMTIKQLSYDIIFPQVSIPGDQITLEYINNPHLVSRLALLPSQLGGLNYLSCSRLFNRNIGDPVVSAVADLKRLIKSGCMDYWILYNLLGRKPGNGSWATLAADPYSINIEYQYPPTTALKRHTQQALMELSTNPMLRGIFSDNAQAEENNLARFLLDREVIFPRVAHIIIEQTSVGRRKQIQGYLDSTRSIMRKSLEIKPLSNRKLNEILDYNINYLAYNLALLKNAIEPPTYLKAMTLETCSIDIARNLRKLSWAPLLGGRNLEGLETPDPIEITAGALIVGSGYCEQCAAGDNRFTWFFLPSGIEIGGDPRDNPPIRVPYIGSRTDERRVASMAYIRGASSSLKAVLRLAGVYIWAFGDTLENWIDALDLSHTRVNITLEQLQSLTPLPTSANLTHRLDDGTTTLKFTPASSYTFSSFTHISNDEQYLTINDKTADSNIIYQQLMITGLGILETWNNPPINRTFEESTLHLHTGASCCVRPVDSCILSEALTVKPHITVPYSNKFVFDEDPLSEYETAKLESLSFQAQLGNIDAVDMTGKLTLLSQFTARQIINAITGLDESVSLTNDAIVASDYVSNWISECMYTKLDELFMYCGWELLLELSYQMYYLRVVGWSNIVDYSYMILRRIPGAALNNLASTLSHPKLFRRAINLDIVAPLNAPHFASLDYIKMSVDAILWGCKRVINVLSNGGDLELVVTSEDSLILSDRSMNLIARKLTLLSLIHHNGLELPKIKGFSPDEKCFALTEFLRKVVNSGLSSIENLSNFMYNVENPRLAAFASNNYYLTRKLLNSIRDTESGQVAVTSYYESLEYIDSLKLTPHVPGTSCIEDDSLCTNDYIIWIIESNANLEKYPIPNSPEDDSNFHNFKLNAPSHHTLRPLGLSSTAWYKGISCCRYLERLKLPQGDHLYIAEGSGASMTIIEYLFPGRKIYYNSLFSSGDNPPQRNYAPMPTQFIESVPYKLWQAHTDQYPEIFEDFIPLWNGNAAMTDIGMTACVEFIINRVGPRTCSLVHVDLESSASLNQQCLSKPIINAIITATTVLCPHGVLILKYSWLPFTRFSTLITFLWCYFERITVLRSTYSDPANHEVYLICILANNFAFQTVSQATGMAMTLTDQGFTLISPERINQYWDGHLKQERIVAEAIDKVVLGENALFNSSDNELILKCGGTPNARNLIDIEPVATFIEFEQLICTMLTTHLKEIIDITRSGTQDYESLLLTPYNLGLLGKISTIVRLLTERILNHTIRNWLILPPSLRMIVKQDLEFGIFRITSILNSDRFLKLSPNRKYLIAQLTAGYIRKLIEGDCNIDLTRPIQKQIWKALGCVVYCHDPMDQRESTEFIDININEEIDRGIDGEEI
Sequence of UniProt Q88434 (P11208 whole entry, further chain): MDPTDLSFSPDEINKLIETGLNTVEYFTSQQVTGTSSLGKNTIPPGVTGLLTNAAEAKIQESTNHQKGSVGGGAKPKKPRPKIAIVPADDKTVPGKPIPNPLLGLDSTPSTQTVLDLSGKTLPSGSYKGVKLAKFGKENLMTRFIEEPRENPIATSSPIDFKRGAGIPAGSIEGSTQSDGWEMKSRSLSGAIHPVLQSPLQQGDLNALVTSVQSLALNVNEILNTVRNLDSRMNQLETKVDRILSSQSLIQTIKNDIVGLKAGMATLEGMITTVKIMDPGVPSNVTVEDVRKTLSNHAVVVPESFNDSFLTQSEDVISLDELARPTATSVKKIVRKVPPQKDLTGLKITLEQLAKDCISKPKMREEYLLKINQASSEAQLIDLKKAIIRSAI
Sequence of UniProt Q6WB93 (Q6WB93 whole entry): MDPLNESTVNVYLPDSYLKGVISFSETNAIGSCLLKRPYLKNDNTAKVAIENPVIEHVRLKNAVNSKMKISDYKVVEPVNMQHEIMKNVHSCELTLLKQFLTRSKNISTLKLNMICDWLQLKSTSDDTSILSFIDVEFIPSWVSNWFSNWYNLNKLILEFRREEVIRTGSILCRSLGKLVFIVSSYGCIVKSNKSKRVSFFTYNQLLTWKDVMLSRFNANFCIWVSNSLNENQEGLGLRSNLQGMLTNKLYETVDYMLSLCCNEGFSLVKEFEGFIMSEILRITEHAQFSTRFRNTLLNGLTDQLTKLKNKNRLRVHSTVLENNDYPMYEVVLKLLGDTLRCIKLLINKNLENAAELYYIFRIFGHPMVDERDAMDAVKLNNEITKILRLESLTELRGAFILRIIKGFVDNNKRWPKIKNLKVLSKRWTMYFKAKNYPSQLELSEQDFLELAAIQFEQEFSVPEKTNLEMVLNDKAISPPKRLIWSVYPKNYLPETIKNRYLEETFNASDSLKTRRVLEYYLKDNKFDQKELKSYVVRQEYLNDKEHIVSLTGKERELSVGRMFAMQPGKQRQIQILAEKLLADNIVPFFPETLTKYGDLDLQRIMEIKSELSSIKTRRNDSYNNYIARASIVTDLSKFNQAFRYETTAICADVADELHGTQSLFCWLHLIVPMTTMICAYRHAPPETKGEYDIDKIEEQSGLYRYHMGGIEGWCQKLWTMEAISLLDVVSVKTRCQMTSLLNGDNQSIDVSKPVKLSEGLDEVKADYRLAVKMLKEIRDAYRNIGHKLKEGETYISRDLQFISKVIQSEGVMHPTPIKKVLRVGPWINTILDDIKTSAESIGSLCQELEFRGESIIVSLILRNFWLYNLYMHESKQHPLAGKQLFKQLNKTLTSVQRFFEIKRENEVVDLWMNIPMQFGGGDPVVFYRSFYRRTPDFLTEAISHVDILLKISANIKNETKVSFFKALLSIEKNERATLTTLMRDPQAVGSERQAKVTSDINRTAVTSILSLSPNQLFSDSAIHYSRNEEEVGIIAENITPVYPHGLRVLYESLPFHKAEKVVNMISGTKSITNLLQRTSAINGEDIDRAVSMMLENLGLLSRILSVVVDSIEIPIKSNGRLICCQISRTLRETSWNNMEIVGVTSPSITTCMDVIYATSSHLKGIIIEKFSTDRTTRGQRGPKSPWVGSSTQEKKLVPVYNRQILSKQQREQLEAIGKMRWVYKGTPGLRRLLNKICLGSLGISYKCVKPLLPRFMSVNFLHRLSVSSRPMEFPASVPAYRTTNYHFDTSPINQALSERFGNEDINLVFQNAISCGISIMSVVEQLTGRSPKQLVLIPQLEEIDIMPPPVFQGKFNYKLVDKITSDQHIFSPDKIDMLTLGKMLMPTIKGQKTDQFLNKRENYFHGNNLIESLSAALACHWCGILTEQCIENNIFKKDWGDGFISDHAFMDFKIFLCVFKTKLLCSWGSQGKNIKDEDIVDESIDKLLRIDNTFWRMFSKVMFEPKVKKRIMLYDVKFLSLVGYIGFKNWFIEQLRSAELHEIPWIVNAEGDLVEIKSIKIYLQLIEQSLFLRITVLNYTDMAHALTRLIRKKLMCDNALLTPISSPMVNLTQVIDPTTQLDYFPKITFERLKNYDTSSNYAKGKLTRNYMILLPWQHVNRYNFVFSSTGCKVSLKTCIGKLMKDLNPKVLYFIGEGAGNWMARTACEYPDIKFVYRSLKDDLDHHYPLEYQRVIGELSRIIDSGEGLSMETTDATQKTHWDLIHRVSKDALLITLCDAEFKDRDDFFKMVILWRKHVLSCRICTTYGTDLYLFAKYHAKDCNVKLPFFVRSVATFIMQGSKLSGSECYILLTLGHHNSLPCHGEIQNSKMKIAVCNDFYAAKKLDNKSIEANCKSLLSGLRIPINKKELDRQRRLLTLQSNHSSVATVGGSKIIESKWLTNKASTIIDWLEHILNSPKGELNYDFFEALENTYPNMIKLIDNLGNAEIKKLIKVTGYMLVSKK
Sequence of UniProt Q6WB93 (Q8B9Q8 whole entry, further chain): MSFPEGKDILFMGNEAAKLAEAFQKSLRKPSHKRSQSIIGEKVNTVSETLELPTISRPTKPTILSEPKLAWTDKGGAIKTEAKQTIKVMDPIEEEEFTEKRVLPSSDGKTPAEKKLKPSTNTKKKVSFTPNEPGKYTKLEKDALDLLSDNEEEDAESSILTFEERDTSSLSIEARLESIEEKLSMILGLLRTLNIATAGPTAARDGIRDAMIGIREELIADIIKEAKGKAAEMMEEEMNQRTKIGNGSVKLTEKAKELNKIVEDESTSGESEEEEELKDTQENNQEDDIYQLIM

SMILES | Inhibition (fold) of subsequent nucleotide incorporation, ratio of Vmax/Km vs AMP-terminated primer [1] | Inhibition (fold) of subsequent nucleotide incorporation, ratio of Vmax/Km vs AMP-terminated primer [2] | Inhibition (fold) of subsequent nucleotide incorporation, ratio of Vmax/Km vs AMP-terminated primer [3] | Inhibition (fold) of subsequent nucleotide incorporation, ratio of Vmax/Km vs AMP-terminated primer [4] [fold] | Inhibition (fold) of subsequent nucleotide incorporation, ratio of Vmax/Km vs AMP-terminated primer [5]
N#C[C@@]1(c2ccc3c(N)ncnn23)O[C@H](COP(=O)(O)OP(=O)(O)OP(=O)(O)O)[C@@H](O)[C@H]1O [GS-443902] | 0.59 fold | 0.40 fold | 1.01 fold | 4.77 | –
N#C[C@]1(COP(=O)(O)OP(=O)(O)OP(=O)(O)O)O[C@@H](c2ccc3c(N)ncnn23)[C@H](O)[C@@H]1O [GS-646939] | 17,405 fold | 4,190 fold | 3,334 fold | 517 | 1,048 fold

Source: paper PMC11345399 (The Journal of Biological Chemistry, 2024)
